In all, about 310,000 compounds went through this assay and about 2,200 (0.71%) showed an effect of 50% or more. The effect is printed as a negative number. This is one part of the list.
target: human ether-à-go-go-related gene (hERG) potassium channel (human, UniProt Q12809); experiment: primary screen, population patch clamp on CHO cells stably expressing hERG
Sequence (Q12809 whole entry, looked up): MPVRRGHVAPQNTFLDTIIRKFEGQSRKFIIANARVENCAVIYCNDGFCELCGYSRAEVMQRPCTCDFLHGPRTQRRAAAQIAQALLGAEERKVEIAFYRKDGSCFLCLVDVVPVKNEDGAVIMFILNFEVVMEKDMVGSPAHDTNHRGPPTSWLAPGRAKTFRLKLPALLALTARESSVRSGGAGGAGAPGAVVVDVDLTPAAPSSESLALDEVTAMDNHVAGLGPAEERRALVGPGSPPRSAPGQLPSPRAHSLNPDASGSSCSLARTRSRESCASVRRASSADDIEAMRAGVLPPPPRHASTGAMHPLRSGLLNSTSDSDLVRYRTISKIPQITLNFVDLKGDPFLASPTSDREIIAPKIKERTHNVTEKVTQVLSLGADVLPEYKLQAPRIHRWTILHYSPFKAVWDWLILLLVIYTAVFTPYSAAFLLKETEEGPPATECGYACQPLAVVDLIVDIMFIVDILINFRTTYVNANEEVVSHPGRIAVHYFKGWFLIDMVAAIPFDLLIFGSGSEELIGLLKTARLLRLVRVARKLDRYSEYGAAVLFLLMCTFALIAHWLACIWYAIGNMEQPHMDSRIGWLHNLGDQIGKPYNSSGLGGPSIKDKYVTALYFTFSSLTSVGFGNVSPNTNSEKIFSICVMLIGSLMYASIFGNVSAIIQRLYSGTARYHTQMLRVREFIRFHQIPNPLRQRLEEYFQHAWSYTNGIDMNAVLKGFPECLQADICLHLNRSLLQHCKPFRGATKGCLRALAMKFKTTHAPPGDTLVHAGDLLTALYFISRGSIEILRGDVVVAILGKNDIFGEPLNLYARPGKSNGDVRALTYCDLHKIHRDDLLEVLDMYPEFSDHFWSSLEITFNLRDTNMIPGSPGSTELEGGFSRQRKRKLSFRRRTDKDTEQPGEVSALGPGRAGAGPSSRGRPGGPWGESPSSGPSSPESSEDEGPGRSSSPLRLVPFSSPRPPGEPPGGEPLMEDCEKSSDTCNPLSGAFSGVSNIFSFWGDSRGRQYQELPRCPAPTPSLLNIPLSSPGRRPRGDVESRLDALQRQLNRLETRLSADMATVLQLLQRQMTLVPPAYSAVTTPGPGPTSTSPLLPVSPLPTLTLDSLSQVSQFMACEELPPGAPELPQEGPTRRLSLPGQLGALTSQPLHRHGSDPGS

Compound	hERG current change (%, negative = inhibition) at 1uM [%]
C/C(=N\NC(=O)c1ccccc1[N+](=O)[O-])c1c(O)cc(C)oc1=O	24
CCC(C)NC(=O)CO/N=C/c1ccccc1OC(F)F (stereo not drawn)	1.8
O=C(CSc1ncccn1)N1CCN(S(=O)(=O)c2ccccc2)CC1	7.76
C=CCNC(=O)/C(=C/c1cn(-c2ccccc2)nc1-c1cccc([N+](=O)[O-])c1)NC(=O)c1ccccc1	-1.23
O=C1CSC(c2cccnc2)N1CC1CC1 (stereo not drawn)	9.36
Cn1c(N)c(C(=O)CSc2n[nH]c(-c3ccccc3)n2)c(=O)n(C)c1=O	1.83
Cc1cc(C(=O)NCC(=O)OCC(=O)NCC2CCCO2)ccc1[N+](=O)[O-] (stereo not drawn)	11.3
Cc1ccc(N2C(=O)CC(N3CCN(c4ccc(F)cc4)CC3)C2=O)c(C)c1 (stereo not drawn)	0.98
CN(Cc1ccccc1F)C(=O)CCNC(=O)c1ccc(C(C)(C)C)cc1	4.24
Cc1ccc(S(=O)(=O)N2CCC3(CC2)OCCO3)c(C)c1	14.4
CN(C)/C=N/C1=C(C#N)C(c2ccc(Br)cc2)c2ccc3ccccc3c2O1 (stereo not drawn)	18.8
Cc1cccc(OCC(=O)Nc2ccc3c(c2)nc(CCN2CCN(C)CC2)n3C)c1	-6.31
CCOC(=O)C1CCCN(C(=O)c2ccc3c(c2)NC(=O)C(N2CCOCC2)S3)C1 (stereo not drawn)	9.57
CC(=O)Nc1ccc(S(=O)(=O)NCCSCc2ccccc2Cl)cc1	8.32
Cc1cccc(OCC(=O)N2CCN(C(=O)c3ccc([N+](=O)[O-])cc3)CC2)c1	-38.8
CCOC(=O)CN(C#N)c1nc(C)cc(C)n1	-2.69
O=C(c1c(O)cc(O)cc1O)C1c2c(cc(O)c3c2O[C@H](c2ccc(O)cc2)[C@@H](O)C3)OC1c1ccc(O)cc1 (stereo partly drawn)	13.1
Cc1ccc(/C=N/NC(=O)CN2C(=O)CSc3ccccc32)o1	12.9
COc1ccc(C2C(C(=O)N3CCN(c4ccccc4F)CC3)c3ccccc3C(=O)N2C)cc1 (stereo not drawn)	-5.09
CC(=O)Nc1ccc(S(=O)(=O)NCC(=O)OCC(=O)N2CCN(c3ccccc3)CC2)cc1	3.81
O=C1CSC(c2cccc([N+](=O)[O-])c2)N1CCc1ccccc1 (stereo not drawn)	13.6
COc1ccccc1NC(=O)CSc1ncc(CO)n1Cc1ccc(F)cc1	8.66

Compound	hERG current change (%, negative = inhibition) at 1uM [%]
N#C/C(=C/c1ccc(-c2ccc(S(N)(=O)=O)cc2)o1)c1nc2ccccc2s1	7.66
Clc1ccc(CN2CCCCCC2)cc1.O=C(O)C(=O)O	13.4
CCc1ccc(CCC(=O)Nc2ccc(OC)cc2)o1	9.76
COc1ccccc1CNC(=O)Cn1cc2c(n1)CCCC2	4.62
Cc1ccccc1NC(=S)N1CCN(C(=O)c2ccco2)CC1	12.1
CCOc1ccc(S(=O)(=O)Nc2nc3ccc(OC)cc3s2)cc1	11.7
O=C(O)/C=C/C(=O)N1CCN(C(c2ccccc2)c2ccccc2)CC1	17.3
CN1CCN(c2ncc3c(n2)CC(c2ccccc2F)CC3=O)CC1 (stereo not drawn)	9.18
CCc1cc2c(NC3CCCC3)ncnc2s1.Cl	5.39
O=C(COC(=O)COc1cccc(F)c1)NCCC1=CCCCC1	15.2
CN(C)c1cccc(C(=O)NN2C(=O)NC3(CCCCC3)C2=O)c1	12.5
O=C(C1CCCN(S(=O)(=O)c2cccc3nonc23)C1)N1CCC(Cc2ccccc2)CC1 (stereo not drawn)	-0.208
NS(=O)(=O)c1ccc(NC(=S)Nc2ccc(OCc3ccccc3)cc2)cc1	18.5
C=CCN1C(=O)c2cccc3c(N4CCCCC4)ccc(c23)C1=O	5.49
Cc1ccc2[nH]c(C(=O)N3CCOCC3)cc2c1	17.9
CC1CN(Cc2nnc(-c3ccccc3)o2)CC(C)O1.Cl (stereo not drawn)	6.49
O=C(Nc1ccc2nc(-c3ccco3)[nH]c2c1)c1cccs1	9.77
CC(=O)NCc1nc2ccccc2n1Cc1ccccc1F	10.2
O=C(NC1=C(Nc2ccc(Cl)cc2)C(=O)c2ccccc2C1=O)c1ccccc1	5.97
O=C(Cn1sc2ccccc2c1=O)NC12CC3CC(CC(C3)C1)C2	13
O=C(c1cccc(Cl)c1)N1CCn2c1nc1ccccc12	6.26
CCN1C(=O)C2C(c3cccc(F)c3)NC(CC)(C(=O)OC)C2C1=O (stereo not drawn)	17.7

Compound	hERG current change (%, negative = inhibition) at 1uM [%]
CCOc1ccc(CCNC(=O)COC(=O)CCc2cc(OC)c(OC)c(OC)c2)cc1OCC	-9.97
CCc1nc2ccccc2n1Cc1cc(=O)n2cc(C)ccc2n1	11.2
O=C(CN1CCCCC1)N/N=C/c1ccccc1OCc1ccccc1	-0.21
CCN(Cc1ccccc1)C(=O)C1CCN(CC2CC=CCC2)CC1.O=C(O)C(=O)O (stereo not drawn)	0.726
CC(=O)Nc1ccc(S(=O)(=O)NNC(=S)NCc2ccco2)cc1	11.5
COCCN(C(=O)c1csnn1)C(C(=O)NC1CCCCC1)c1cccs1 (stereo not drawn)	-8.97
COc1ccc(CN(C)C(=O)c2ccccc2Sc2ccccc2C#N)cc1OC	7.45
Cc1ccc(/C=N/N2CCN(c3ccc(Cl)cc3)CC2)o1	11.4
O=C(O)CC(C(=O)N(c1ccccc1)c1ccccc1)N1CCOCC1 (stereo not drawn)	1.13
COc1cc2c(c(OC)c1OC)-c1c(cc3c(c1OC)OCO3)C1OC2[C@@H](C)[C@H]1C (stereo partly drawn)	9.89
COC(=O)C1C(O)=C(C=Nc2ccc3ccccc3c2)C(=O)CC1(C)C (stereo not drawn)	11.4
Cc1ccc(-n2c(C)nc3c(cnn3-c3ccccc3Cl)c2=O)cc1C	14.7
O=C(CSc1nnc(CNC(=O)c2c(F)cccc2Cl)o1)NCc1ccc(F)cc1	9.08
COc1ccccc1CNC(=O)Cn1cc(Br)ccc1=O	8.67
CCOc1ccc(NC(=O)N2CCC(NC(=O)C(Cc3ccc(OC)c(OC)c3)NC(C)=O)CC2)cc1 (stereo not drawn)	8.06
CCn1nc(C)c(/C=N/NC(=O)CSc2ccccn2)c1C	10.3
O=C(CCc1nnc(CCCc2ccccc2)o1)NCCc1ccco1	6.06
CCOC(=O)CC(=O)CSc1nc(-c2cccnc2)ccc1C#N	9.36
COCCNC(=O)Nc1ccc2nc(-c3ccco3)c(-c3ccco3)nc2c1	1.54
C=CCNC(=S)Nc1sc2c(c1C(=O)OCC)CCN(C(=O)OCC)C2	10.2
COc1ccc(/C=C/C(=O)N2CCCC2)cc1OC	3.99
O=C(NC1CCCC1)C(c1ccccc1F)N(C(=O)Cc1cccs1)c1ccc2c(c1)OCCO2 (stereo not drawn)	5.88

Compound	hERG current change (%, negative = inhibition) at 1uM [%]
Cc1ccc(NC(=O)CCNC(=O)c2ccc([N+](=O)[O-])cc2)cc1C	9.2
Cc1ccc(NC(=O)C(C)OC(=O)/C=C/c2ccccc2)cc1S(=O)(=O)N1CCOCC1 (stereo not drawn)	8.54
Cc1cccc(N2C(=O)C(O)=C(C(=O)c3cccs3)C2c2ccc(C(C)C)cc2)n1 (stereo not drawn)	4.41
Cc1ccc(N2C(=O)CC(Sc3nc(-c4ccccc4)c4cc(Cl)ccc4n3)C2=O)c(C)c1 (stereo not drawn)	3.4
CN(/C=C/C(=O)C(F)(F)F)Cc1ccccc1	9.63
CSc1ccc(C#N)cc1NC(=O)c1ccc(Cl)cc1Cl	-1.58
O=S(=O)(c1cccc(-c2nnc3n2CCCCC3)c1)N1CCCC1	8.43
CCc1cccc(NC(=O)CN(C)S(=O)(=O)c2cccc3nsnc23)c1	-0.523
CCOc1ccccc1NC(=O)COC(=O)C(Cc1ccccc1)NC(=O)c1ccco1 (stereo not drawn)	6.03
COCN(C#N)c1nc(OC)nc(OC)n1	14.7
CCOC(=O)c1ccc2c(c1)nc(C1CCN(S(=O)(=O)c3cccs3)CC1)n2CC	-12.3
Nc1nc(Cl)cc(Oc2ccccc2F)n1	10.3
CCc1ccc(CCN2C(=O)c3ccccc3C2=O)nc1	-0.128
O=C(OCc1ccccc1)N1CCOCCN(C(=O)OCc2ccccc2)CCOCC1	-7.02
COc1ccc(NC(=O)CCC(=O)OC(C(=O)c2ccccc2)c2ccccc2)cc1 (stereo not drawn)	8.31
COc1ccc(CC(C)N2CCN(c3ccccc3OC)CC2)cc1OC (stereo not drawn)	-42.2
O=C(CC1CCCCC1)Nc1ncn[nH]1	8.98
CC1CN(C(=O)COC(=O)c2cc([N+](=O)[O-])ccc2Cl)CC(C)O1 (stereo not drawn)	9.39
COc1ccc(C(=O)O)cc1S(=O)(=O)Nc1ccc(Oc2ccccc2)cc1	5.45
CCN(c1ccc(NC(=O)COC(=O)c2cccs2)cc1)C(C)C	9.23
CN(c1ccccc1)S(=O)(=O)c1cccc(NC(=O)c2cncc(Br)c2)c1	-3.27
